# The whole screen tested about 340,000 compounds, of which about 6,900 (2%) were called active. Cut-off read from the data, not from the text of the source: active = inhibition above about 30%; inactive = below that, where a call was filed. This is a selection; strong and weak results do not stand in their true shares. The source gives no active or inactive call for entries shown without one.
# Biological target: D(2) dopamine receptor (Homo sapiens) (UniProt P14416)
# Experiment: HTS Assay for Allosteric Antagonists of the Human D2 Dopamine Receptor: Primary Screen for Antagonists; note: 0% is about no effect
# Settings: HEK293 TREx D2 cells, calcium flux, dopamine EC80; at 10 µM; stronger effect = higher value
# How it was run: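 Read-out: kinetic calcium fluorescence (1 cycle/s) in inducible HEK293 T-REx D2 cells after an EC80 dopamine addition that followed 180 s compound preincubation. Loss of the dopamine response indicates antagonism.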
# UniProt P14416, sequence (P14416 whole entry, looked up): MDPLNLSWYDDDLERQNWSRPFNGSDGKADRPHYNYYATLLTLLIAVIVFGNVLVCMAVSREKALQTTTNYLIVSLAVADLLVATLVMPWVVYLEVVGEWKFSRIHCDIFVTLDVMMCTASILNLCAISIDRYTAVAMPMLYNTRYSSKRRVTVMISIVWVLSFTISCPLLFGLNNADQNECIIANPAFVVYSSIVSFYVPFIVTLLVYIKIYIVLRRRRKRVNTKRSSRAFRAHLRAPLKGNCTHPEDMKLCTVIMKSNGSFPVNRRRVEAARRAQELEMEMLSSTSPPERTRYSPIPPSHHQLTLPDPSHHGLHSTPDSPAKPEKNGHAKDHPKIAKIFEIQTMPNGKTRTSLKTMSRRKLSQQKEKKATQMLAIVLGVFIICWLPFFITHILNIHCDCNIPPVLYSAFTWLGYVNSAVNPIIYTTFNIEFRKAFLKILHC
row,Compound,inhibition
1,O=C(Cn1ccc2cc(S(=O)(=O)N3CCCCCC3)ccc21)NCc1ccccc1Cl,2.41%
2,COC(=O)c1ccc2c(=O)n(CCCCCC(=O)NCCc3ccccc3)c(=O)[nH]c2c1,-2.54%
3,CCc1ccc(OCC2c3cc(OC)c(OC)cc3CCN2C(=O)c2ccc(S(=O)(=O)N3CCCC3)cc2)cc1 (stereo not given),20.8%
4,CCn1cc(C(=O)NCCCOC(C)C)c(=O)c2cc(S(=O)(=O)N3CCOCC3)ccc21,-8.67%
5,O=C(CN1CCC(NC(=O)c2ccco2)CC1)Nc1ccccc1C(F)(F)F,active: 49.8%
6,CCOC(=O)c1cnc2c(ccc3ccccc32)c1Nc1ccc(N(C)C)cc1,-11.3%
7,CC(C)N(Cc1ccccc1)C(=O)c1nc(-c2ccc(Cl)cc2)n2c1CCCCC2,3.71%
8,CCN1C(=O)c2ccccc2S(=O)(=O)c2ccc(C(=O)NCc3ccccc3)cc21,-17.7%
9,CCOC(=O)C1CCN(C(=O)c2ccccc2NC(=O)c2nsc3ccccc23)CC1,-4.36%
10,CCOc1ccc(NS(=O)(=O)c2c(C)nc3sc(C)c(C)n3c2=O)cc1,15.6%
11,COCCCNC(=O)c1cn(Cc2c(F)cccc2Cl)nn1,active: 32%
12,Clc1ccc(OCc2nnc(-c3ccccc3Br)o2)cc1,active: 36.4%
13,Cc1nc2nc(NC(=O)c3ccc(C(C)(C)C)cc3)[nH]n2c(=O)c1C,2.26%
14,CCCCOc1ccc(C(=O)Nc2ccc3c(c2)CCCN3C(=O)c2cccs2)cc1,5.04%
15,O=C(CCC1N=C2c3ccccc3N=C(SCC(=O)Nc3cccc(Cl)c3)N2C1=O)NCc1ccco1 (stereo not given),14.2%
16,CNCc1c(OCc2ccccc2)ccc2ccccc12,active: 79.2%
17,NC(=O)C1CCN(S(=O)(=O)c2cc3c(cc2Cl)NC(=O)CO3)CC1,10.9%
18,CCCCN(CC)C(=O)CSc1nc2n[nH]c(C)c2c(=N)n1-c1ccc(CC)cc1,7.32%
19,CCOC(=O)C1CCN(C(=O)c2cc3sc(C)cc3n2C)CC1,2.27%
20,CCOc1ccc(-c2cccc(NS(=O)(=O)c3ccc(C)s3)c2)nn1,-3.58%

row,Compound,inhibition
1,COc1ccc(NC(=O)CSc2ncc3c(n2)-c2ccccc2N(Cc2ccc(C)cc2)S3(=O)=O)cc1Cl,1.16%
2,Cc1ccc(N(C)C(=O)c2sc3nc4n(c(=O)c3c2C)CCCC4)cc1C,24.9%
3,COCCCn1c(=O)c2sccc2n2c(CCCC(=O)NCc3cccc(OC)c3)nnc12,-5.69%
4,O=C(NCc1ccccc1CN1CCCC1)c1ccc(Cl)c(S(=O)(=O)N2CCCC2)c1,active: 32.9%
5,COc1ccccc1CCNC(=O)Cc1c(C)c2cc(Cl)c(O)cc2oc1=O,-2.7%
6,CCN(CC(O)CON=C1c2ccccc2-c2ccccc21)S(=O)(=O)c1ccc(C)cc1 (stereo not given),active: 34.1%
7,CC(C)c1ccc(S(=O)(=O)N2CCN(Cc3cccc(F)c3)CC2)cc1,19.3%
8,CCCCOc1ccccc1C1CC(=O)Nc2ccc3ccccc3c21 (stereo not given),12%
9,CCOc1ccc(CNC(=O)c2oc3c(c2C)-c2nn(Cc4cccc(Cl)c4)cc2CC3)cc1,10.7%
10,COc1cc(OC)cc(C(=O)NC(=S)N2CCCCC2c2cccnc2)c1 (stereo not given),active: 40.7%
11,COc1ccc(C)c2sc(NC(=O)c3ccc(S(=O)(=O)N(C)C)cc3)nc12,0.445%
12,COC(=O)c1ccccc1NC(=O)[C@H]1O[C@@H]2OC(C)(C)O[C@@H]2[C@H]2OC(C)(C)O[C@H]21,-2.03%
13,Cc1cc(C)cc(OCC(=O)Nc2cccc3cccnc23)c1,-0.269%
14,CCCCCCC(=O)Nc1ccc2nc3c(=O)n(C)c(=O)n(C)c3nc2c1C,-20.1%
15,CC(=O)Nc1cccc(-c2nc(-c3ccccc3)no2)c1,5.37%
16,CCOC(=O)c1ccc(N2C(=O)c3n[nH]c(-c4ccco4)c3C2c2ccc(C(=O)OC)cc2)cc1 (stereo not given),22.6%
17,O=C(c1ccc2c(c1)N(Cc1ccc(Cl)cc1)C(=O)c1ccccc1S2(=O)=O)N1CCCC1,0.714%
18,O=c1c2sc3ccccc3c2n(Cc2cccc(F)c2)c(=O)n1CCc1ccccc1,-3.84%
19,CCN(CC)C(=O)Cn1c(=O)n(CCCCCC(=O)NCc2ccc3c(c2)OCO3)c(=O)c2sccc21,-18.1%
20,Cc1ccccc1C(=O)Nc1ccnn1C1CCN(Cc2ccncc2)CC1,active: 30.7%

row,Compound,inhibition
1,Cc1ccc(CNC(=O)c2ccc(N3CCCC3)c(NC(=O)Nc3ccc(C)cc3)c2)cc1,7.41%
2,Cc1ccc(CNC(=O)C(=O)Nc2c3c(nn2-c2ccc(F)cc2)CSC3)cc1,20.5%
3,Cc1ccc(NC(=O)CN2C(=O)COc3ccc(S(=O)(=O)N4CCCCCC4)cc32)c(C)c1,-4.11%
4,CCC(=O)OCc1cc(=O)n2nc(C3CC3)sc2n1,14.2%
5,Cc1ccc2nc(CSc3nnc(-c4ccncc4)n3C)cc(=O)n2c1,active: 71.2%
6,CCCc1cc(=O)oc2c3c(ccc12)OCN(Cc1ccccc1OC)C3,7.4%
7,CN(C(=O)Cn1nc(Cc2cccnc2)c2ccccc2c1=O)c1cccc(C(F)(F)F)c1,11.9%
8,COc1ccc(Oc2cc(C)c3ccccc3n2)cc1,active: 44.6%
9,CCCCC1CCC(C(=O)N2CC(=O)Nc3ccc(Br)cc3C2c2ccc(F)cc2)CC1 (stereo not given),5.27%
10,CN1C(=O)c2ccc(NC(=O)c3c(C(=O)O)cccc3[N+](=O)[O-])cc2C1=O,active: 33.9%
11,CCc1ccc(S(=O)(=O)c2nnn3c2nc(N2CCN(c4ccccc4)CC2)c2cc(Cl)ccc23)cc1,11.6%
12,CCc1c(C)c2ccc(O)c(CN3CCN(c4cc(Cl)ccc4C)CC3)c2oc1=O,14%
13,O=C(O)CC1c2ccccc2CCN1C(=O)Nc1cc(Cl)ccc1Cl (stereo not given),-0.177%
14,Cc1ccc(N(CC(=O)N2CCN(c3cc(C)ccc3C)CC2)S(=O)(=O)c2c(C)nn(C)c2C)cc1,7.27%
15,Cc1ccc(CN(C(=O)c2ccc(OCC(C)C)cc2)c2ccccn2)o1,-3.88%
16,CCc1cccc(CC)c1NC(=O)CCCSc1nc2ccccc2s1,active: 30.3%
17,COc1ccc(-c2cc(C)no2)cc1S(=O)(=O)NCCCN1CCN(c2ccccc2)CC1,active: 80.1%
18,CCc1ccc(-c2nc(CS(=O)CC(=O)NCCc3ccc(C)cc3)c(C)o2)cc1 (stereo not given),-1.62%
19,CC(C)c1cnc2c(c1SCC(=O)NC(C)(C)C)c(=O)n(C)c(=O)n2C,4.61%
20,CCN(CC)CCOC(=O)c1ccc(NC(=O)c2cc3c(s2)-c2ccccc2OC3)cc1,7.3%

# — PubChem BioAssay AID485344 (National Center for Advancing Translational Sciences (NCATS), 2010)
